# From ChEMBL document CHEMBL4888484, “Replenishing the malaria drug discovery pipeline: Screening and hit evaluation of the MMV Hit Generation Library 1 (HGL1) against asexual blood stage Plasmodium falciparum ,using a nano luciferase reporter read-out” (2022)
# In all, about 150,000 compounds went through this assay and about 540 (0.36%) showed an effect of 50% or more. This is one part of the list.
# Test system: Plasmodium falciparum
# Experiment: Primary screen in NF54 nanoGlo assay, in single point, at 2uM, 72h; a lower Z score goes with more inhibition
# Type: functional, Erythrocyte
# Settings: timepoint 72 hour
Compound,% Inhibition [%],Z score
CCOC(=O)c1cc(-c2ccccc2)nnc1Oc1ccccc1,32,-1.23
O=C(NCc1ccccn1)c1cn2c3c(cccc3c1=O)CCC2,-13,1.83
CCn1cc([C@H](C)NC(=O)Cn2ncn(C)c2=O)cn1,-3,0.65
O=C1C[C@H](c2ccccc2OCc2ccccc2F)c2sccc2N1,13,-1.72
O=C1[C@@H]2C[C@@H](CN2C(=O)c2cnccn2)Oc2ccccc2N1CC1CC1,-11,1.61
COc1ccc(C(=O)N(C(=O)c2ccc(OC)cc2)c2c3c(nc4ccccc24)CCCC3)cc1,69,-5.66
CC1(C)c2[nH]c3ccccc3c2C[C@H]2C(=O)N(Cc3ccc(F)cc3)CC(=O)N21,-3,0.39
O=C(Cc1c[nH]c2ccccc12)Nc1cccc(-c2noc(C3CCCC3)n2)c1,-14,2.47
CON(C)C(=O)C1CN(C(=O)c2cccs2)C1,-7,1.12
CC1CN(C(=O)C(C)(C)c2cccc(C#N)c2)CC1N1CCOCC1 (centres undefined),-12,1.56
Clc1ccc(CN2CCO[C@H](c3cccnc3)C2)o1,-2,0.43
NC(=NOCC(=O)NCc1ccc2c(c1)OCO2)c1ccc(Cl)cc1,-5,0.92
CN(C)C[C@]1(O)CCCN(Cc2ccc3[nH]ccc3c2)C1,2,-0.5
Cc1ccccc1NC(=O)C[C@H]1COc2ccccc2NC1=O,-16,1.85
CCCN1C(=O)c2c(C(=O)Nc3cc(F)ccc3F)ncn2C[C@@]1(C)C(=O)NCc1ccc(C)cc1,-15,2.81
CC(C)n1cc(CN2CCN(C(=O)N(C)C)[C@H]3CS(=O)(=O)C[C@H]32)cn1,-8,1.35
CN(C)CCCc1nc(-c2ccccc2)nn1-c1ccc2c(c1)OCO2,-7,1.06
Cc1sc2nc(CN3CCC(C)CC3)nc(N3CC(O)CC3C(N)=O)c2c1C (centres undefined),-6,0.7
CCS(=O)(=O)N1CC(N2CCN(C(=O)OC(C)(C)C)CC2)C1,-3,0.33
Cc1c(C(=O)N2CC3(CCC3)c3c(F)cccc32)nnn1-c1ccn(C)n1,11,-1.43
CCn1c(-c2cccnc2)nc2cc(NC(=O)COC)cc(C(=O)N[C@@H](C)CCCC(C)(C)O)c21,-3,0.5
CC(C)OCC(=O)N1CCN(C(=O)COC(C)C)[C@H](C#N)C1,3,-0.63
O=C([C@@H]1CCCO1)N1CCCN(Cc2ccc(C3CCCC3)s2)CC1,2,-0.34
COc1ccccc1CCNC(=O)c1csc(NC(C)C)n1,6,-0.74
Cc1ccsc1CCNC(=O)[C@@H]1CNCCO1,-5,0.7
O=C(NCCc1ccccc1)Nc1cnn(Cc2ccccn2)c1,-9,1.19

Compound,% Inhibition [%],Z score
O=C(NCc1ccccn1)[C@@H]1CN(Cc2cc3ccccc3o2)CCN1,-6,0.97
Clc1ccc([C@@H]2c3cccn3CCCN2Cc2cccnc2)cc1Cl,-2,0.27
COCCNC(=O)c1[nH]c2c(NC(=O)Nc3ccc(C)cc3)cc(C)cc2c1-c1ccccc1,27,-3.07
O=C(Nc1ccc(-c2ccccn2)cc1)N1CCCC1,-8,1.06
C[C@H]1CN(C(=O)c2coc3ccccc23)C(C)(C)CO1,-6,0.58
c1cc(-c2noc(CN3CCC[C@H]3C3CCC3)n2)co1,-10,1.49
CC(C)(CC(=O)N1CCCOCC1)c1ccccc1,-29,3.39
O=C(Nc1ccc2c(c1)OCO2)C1CCN(C(=O)c2ccco2)CC1,8,-1.04
COCc1ccc(C(=O)N(C)[C@H]2CCCC[C@H]2C(F)(F)F)cc1F,-9,1.08
COc1ccccc1N1CCN(c2c(C(=O)N3CCCC3)cnc3ccc(F)cc23)CC1,-8,1.04
O=C1NCCN1CCN1CCc2[nH]ncc2C1,-10,1.34
O=C(O)[C@@H]1Cc2c([nH]c3ccccc23)CN1C(=O)c1cccn1C1CC1,-2,0.23
CCOC(=O)c1ccc(NC(=O)N2CCc3nc(-c4ccccc4)nc(N4CC(C)OC(C)C4)c3C2)cc1 (centres undefined),-16,2.05
CCc1nnc(CN(C)C(=O)[C@H](C)c2n[nH]c(=O)c3ccccc23)o1,-7,1.07
CC(=O)Nc1nc(C(=O)NCC(C)(C)N2CCN(C)CC2)cs1,5,-0.85
CC(=O)N1CCCN(C(=O)CCc2ccco2)CC1,-6,0.6
CN(C(=O)c1cccc(Nc2cnn(C)c2)c1)c1cccc(F)c1,-11,1.56
Nc1c2c(nc3c1CCCC3)CCCC2 [OCTAAMINOACRIDINE],4,-0.58
Cc1nc(CN2CCc3c(c(C(=O)N(C)Cc4cscn4)nn3Cc3ccccc3)C2)no1,-5,0.9
CC(C)C1(C)NC(=O)N(CC2COc3ccccc3O2)C1=O (centres undefined),-1,0.13
Cc1nc(Cc2noc(-c3cc(C)c(C)c(S(N)(=O)=O)c3)n2)no1,17,-2.03
O=C1N[C@H]2C[C@@H](C(=O)NC[C@H]3O[C@H](CCOc4ccccc41)CC[C@@H]3O)N(Cc1ncc[nH]1)C2,-1,0.18
Cc1cccc(OCCN2C(=O)COc3ccccc32)c1,-5,0.68
CC(C)CC(=O)Nc1ccc(N2CCN(C(=O)C3CCCC3)CC2)c(C(=O)N2CCCCC2)c1,-2,0.35
CC(=O)N1CCC(NCc2nc3ccccc3n2C)C(C)C1 (centres undefined),2,-0.29
C[C@H](NC(=O)c1csc(CN(Cc2ccc(F)cc2)Cc2ccccc2F)n1)c1ccccc1,-4,0.35
